# According to PubChem BioAssay (NCATS):
# Values joined by “and” are separate entries in the source; they are usually repeats but may differ in a detail not shown here. Equal entries are not always repeated. The inconclusive results got no clear call from the source; some entries with a clear call stand among them for comparison. Potencies of inconclusive entries are doubtful fits and often do not repeat. The source holds several records for some structures; these can differ, active in one and inactive in another. Active and inactive are the calls of the source. Unless noted, calls follow the shape of the dose curve; as a rule, active = well fitted curve in the direction sought with a large enough effect; inconclusive = small, poorly fitted or top-dose-only effect, or another doubt; inactive = no such curve, though single readings can be large; an effect the other way counts as inactive or inconclusive.
# Experiments:
# [1] = P-glycoprotein substrates identified in KB-8-5-11 adenocarcinoma cell line, qHTS therapeutic library screen (AID 1346987); also: nearly all actives have a fitted effect of over 65% in size
# In short: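 Human cervical adenocarcinoma KB-8-5-11 cells, selected in colchicine to over-express P-gp and assayed without it, were exposed for 72 h to titrated compounds. An ATP-based luminescent viability signal gave AC50.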
# [2] = NS1 protein of Zika virus - qHTS assay to identify small molecule inhibitors in human HEK 293 cells (AID 1347053); also: nearly all actives have a fitted effect of over 55% in size
# In short: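 In this cell-based screen, HEK 293 cultures received compound for one hour before Zika MR766 at MOI = 0.5. NS1 was quantified 24 hours later by TR-FRET, normalized to virus-free wells and infected wells.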
# [3] = qHTS of pediatric cancer cell lines to identify multiple opportunities for drug repurposing: Primary screen for TC32 cells (AID 1347089); also: nearly all actives have a fitted effect of over 60% in size
# In short: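 Measured quantity: luminescence from CellTiter-Glo, reflecting metabolically active TC32 cells following 48 h of compound. Curves came straight from multi-point titrations, with 8 or 11 points in primary and 11 in confirmatory screening.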
# [4] = molecular target: Tyrosine-protein phosphatase non-receptor type substrate 1 (Homo sapiens) + Leukocyte surface antigen CD47 (Homo sapiens) (UniProt P78324+Q08722); experiment: CD47-SIRPalpha protein protein interaction - LANCE assay qHTS validation (AID 1347057; active = well fitted curve in the direction sought with a large enough effect in the signal ratio, with a control signal flat, not every such curve was filed as active; inconclusive = small, poorly fitted or top-dose-only effect, or effect the other way, or a change in a side signal; inactive = no such curve, though single readings can be large or run the other way; the % refers to the signal ratio)
# Chain of UniProt P78324 (P78324 whole entry, looked up, the tested form may be a part): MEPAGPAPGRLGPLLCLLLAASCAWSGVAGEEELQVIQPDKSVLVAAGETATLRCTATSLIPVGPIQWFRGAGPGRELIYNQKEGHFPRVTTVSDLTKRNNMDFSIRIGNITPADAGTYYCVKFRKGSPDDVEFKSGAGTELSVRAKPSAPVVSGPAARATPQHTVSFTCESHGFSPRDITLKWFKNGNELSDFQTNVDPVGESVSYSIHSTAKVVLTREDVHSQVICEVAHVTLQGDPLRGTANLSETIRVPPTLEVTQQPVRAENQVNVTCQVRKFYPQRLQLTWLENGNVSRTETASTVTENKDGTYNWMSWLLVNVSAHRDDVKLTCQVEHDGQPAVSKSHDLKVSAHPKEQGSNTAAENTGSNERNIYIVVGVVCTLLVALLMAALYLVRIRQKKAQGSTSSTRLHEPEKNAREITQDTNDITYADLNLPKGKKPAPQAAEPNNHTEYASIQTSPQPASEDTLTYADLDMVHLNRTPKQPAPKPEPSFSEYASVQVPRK
# Chain of UniProt P78324 (Q08722 whole entry, looked up, the tested form may be a part): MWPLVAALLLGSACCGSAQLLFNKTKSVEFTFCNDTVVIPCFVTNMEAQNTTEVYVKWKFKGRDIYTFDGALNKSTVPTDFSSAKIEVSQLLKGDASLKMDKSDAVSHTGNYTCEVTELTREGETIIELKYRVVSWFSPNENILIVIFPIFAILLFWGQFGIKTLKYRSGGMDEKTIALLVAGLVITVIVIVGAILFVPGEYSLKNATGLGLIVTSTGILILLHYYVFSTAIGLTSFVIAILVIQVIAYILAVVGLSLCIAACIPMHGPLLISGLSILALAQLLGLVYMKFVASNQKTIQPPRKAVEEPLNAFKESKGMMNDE
# In short: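 Inhibition of soluble CD47/SIRPalpha ectodomain association by titrated compounds, measured as 665/615 nm time-resolved FRET ratio after sequential 30 min room-temperature incubations.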
# Potency is read from the fitted curve at half-maximal effect; tags tell the direction and shape of the fitted curve.
structure (smiles),measurement,setting,value
COCCOc1ccc2c(c1)ncn2-c1ccc2cccc(N3CCC(N)CC3)c2n1,Potency,[1],"active: 23.5 µM and inconclusive: 29.1 µM [inhibitor, single point]"
same,Potency,[2],"inconclusive: 33.2 µM [inhibitor, single point]"
CC1(COc2ccc3c(c2)ncn3-c2ccc3cccc(N4CCC(N)CC4)c3n2)COC1,Potency,[1],"inconclusive: 29.6 µM [inhibitor, single point] and inconclusive: 29.1 µM [inhibitor, single point]"
same,Potency,[2],"inconclusive: 37.2 µM [inhibitor, single point]"
same,Potency,[3],"inconclusive: 14.7 µM [cytotoxic, partial curve]"
CN(C)CCN1C(=O)c2cccc3cc(N)cc(c23)C1=O,Potency,[1],active: 14.8 µM
same,Potency,[3],"inconclusive: 26.2 µM [cytotoxic, single point]"
COc1ccc2c(c1OC)C(=O)OC2[C@H]1c2c(cc3c(c2OC)OCO3)CCN1C (stereo partly specified),Potency,[1],active: 1.87 µM
same,Potency,[2],"inconclusive: 0.372 µM [inhibitor, full curve]"
Cc1ccccc1C(=O)c1ccc(Nc2ccc(Br)cc2N)cc1Cl,Potency,[1],"inconclusive: 16.6 µM [inhibitor, partial curve]"
same,Potency,[2],active: 9.35 µM
COc1cc(NCc2ccc3nc(N)nc(N)c3c2C)cc(OC)c1OC,Potency,[1],inactive and active: 5.8 µM
same,Potency,[2],"inconclusive: 37.2 µM [inhibitor, single point] and inconclusive: 1.78 µM [inhibitor, partial curve, poor fit]"
C[C@@H]1CC(=O)NN=C1c1ccc(NN=C(C#N)C#N)cc1,Potency,[1],"inconclusive: 26.4 µM [inhibitor, single point]"
same,Potency,[2],inactive and active: 14.8 µM
COc1ccc(Cn2ccc3ccc(C(=O)NO)cc32)cc1,Potency,[1],"inconclusive: 18.7 µM [inhibitor, partial curve] and inconclusive: 29.1 µM [inhibitor, single point]"
same,Potency,[2],"inconclusive: 33.2 µM [inhibitor, single point]"
COC(=O)Nc1nc2ccc(C(=O)c3ccccc3)cc2[nH]1,Potency,[1],active: 699 nM and active: 2.96 µM
same,Potency,[2],"inconclusive: 18.7 µM [inhibitor, partial curve, poor fit]"
O=c1[nH]nc(OCCCc2ccc(Cl)cc2)c(NCc2cccnc2)c1Br,Potency,[1],"inconclusive: 9.35 µM [inhibitor, partial curve, poor fit] and inconclusive: 7.31 µM [inhibitor, partial curve]"
same,Potency,[3],"inconclusive: 26.2 µM [cytotoxic, single point]"
CCC(C(=O)O)C1CCC(C)C(C(C)C(O)C(C)C(=O)C(CC)C2OC3(C=CC(O)[C@@]4(CC[C@](C)(C5CC[C@@](O)(CC)C(C)O5)O4)O3)C(C)CC2C)O1 (stereo partly specified),Potency,[1],"inconclusive: 3.32 µM [inhibitor, full curve]"
same,Potency,[2],active: 1.66 µM
same,Potency,[3],active: 5.23 µM
Cc1ccc2c(c1)c1c(n2CCc2ccc(C)nc2)CCN(C)C1,Potency,[1],"inconclusive: 25.9 µM [inhibitor, single point]"
same,Potency,[2],"inconclusive: 37.2 µM [inhibitor, partial curve, poor fit]"
FC(F)c1nc2ccccc2n1-c1nc(N2CCOCC2)nc(N2CCOCC2)n1,Potency,[1],"inconclusive: 105 nM [inhibitor, full curve] and active: 1.16 µM"
same,Potency,[3],"inconclusive: 0.93 µM [cytotoxic, full curve]"
Nc1nc(=S)c2[nH]cnc2[nH]1,Potency,[1],"inconclusive: 2.31 µM [inhibitor, full curve]"
COc1ccc2cc1Oc1ccc(cc1)C[C@H]1c3cc(c(OC)cc3CCN1C)Oc1c(OC)c(OC)cc3c1[C@H](C2)N(C)CC3,Potency,[1],"inconclusive: 13.2 µM [inhibitor, partial curve]"
O=c1c(O)c(-c2ccc(O)cc2O)oc2cc(O)cc(O)c12,Potency,[4],"inconclusive: 7.36 µM [inhibitor, partial curve]"
